Our source for the relative growth values is the supplement of paper PMC9446081.

Hit rate of the full screen: of about 39,000 compounds, about 220 (0.56%) showed activity. Some of the results follow.
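Also: static incubation at 37 °C against the wild-type strain, values averaged over two biological replicates.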

The subject of this experiment is Escherichia coli K-12 BW25113. In words: relative growth (OD600 normalised to plate interquartile mean) (fraction); higher = less growth inhibition, active = 0.2 or less. The note with it: 50 µM; LB; incubation time: overnight (16-24 h).
Turning to `COCC#Cc1cnc2c(c1)C(=O)N([C@H](C)CO)C[C@@H](C)[C@@H](CN(C)S(=O)(=O)c1cccc(OC)c1)O2`, the relative growth is inactive: 0.996.

For `C[C@@H]1CCCCO[C@@H](CN(C)C(=O)Nc2ccc(C(F)(F)F)cc2)[C@@H](C)CN([C@H](C)CO)C(=O)c2cc(NS(=O)(=O)c3cn(C)cn3)ccc2O1`, the relative growth is inactive: 0.942.

As to `C[C@@]1(C2CC2)Cc2cnnn2CCN1`, the relative growth was inactive: 1.01. Then `CC(C)NC(=O)Nc1ccc2c(c1)C(=O)N([C@@H](C)CO)C[C@H](C)[C@H](CN(C)CC1CCCCC1)OCCCC[C@H](C)O2`, with inactive: 1.01; and `Cc1cccc(C)c1Nc1nc2c(C)cc(C)c(C)c2s1`, with inactive: 0.943; and `O=C(C[C@@H]1C[C@H]2c3cc(NC(=O)c4ccc5c(c4)OCO5)ccc3O[C@H]2[C@H](CO)O1)NCCN1CCCCC1`, with inactive: 1.01.

As for `COCC#Cc1cnc2c(c1)C(=O)N([C@@H](C)CO)C[C@@H](C)[C@@H](CN(C)S(=O)(=O)c1cccc(OC)c1)O2`, the relative growth was inactive: 0.978.

On to `CCS(=O)(=O)N1CC[C@]2(CC1)CN([C@@H](CO)c1c2c2ccc(cc2n1C)OC)C(=O)Nc1c(noc1C)C`, for which the relative growth was inactive: 0.996. With `C[C@H](CO)N1C[C@H](C)[C@H](CN(C)Cc2ccc(-c3ccccc3)cc2)Oc2ccc(NC(=O)Cn3cnnn3)cc2CC1=O`, the relative growth was inactive: 1.01.

In the case of `CCCCOc1cc(C(=O)NCCN(CC)CC)c2ccccc2n1.Cl`, the relative growth was inactive: 1.12. Consider `C[C@@H]1CN([C@H](C)CO)S(=O)(=O)c2ccc(/C=C/c3ccccc3)cc2O[C@H]1CN(C)C(=O)CN1CCOCC1`, for which the relative growth was inactive: 1.01. The figure for `COc1ccc(NC(=O)Nc2ccc3c(c2)C(=O)N([C@H](C)CO)C[C@@H](C)[C@H](CN(C)C(=O)Nc2c(C)noc2C)OCCCC[C@@H](C)O3)cc1` is inactive: 0.987.

Take `COc1ccc(CN(C)C[C@H]2OCCCC[C@H](C)Oc3ccc(NS(=O)(=O)c4ccc(OC)cc4)cc3C(=O)N([C@H](C)CO)C[C@H]2C)cc1`: the relative growth was inactive: 1.01. The figure for `COc1ccc(OCc2c(-c3ccccc3)nnn2CC(=O)NS(=O)(=O)c2cccc(C#N)c2)cc1` is inactive: 0.974; for `C[C@@H]1CCCCO[C@H](CN(C)Cc2ccc(C(=O)Nc3ccccc3N)cc2)[C@@H](C)CN([C@H](C)CO)C(=O)c2cc(NS(=O)(=O)c3ccc(Cl)cc3)ccc2O1` it is inactive: 0.988. Then `C[C@@H]1CN([C@@H](C)CO)C(=O)Cc2cc(NC(=O)Nc3cccc4ccccc34)ccc2O[C@@H]1CN(C)S(=O)(=O)c1ccc(F)cc1`, with inactive: 0.994; and `C[C@@H]1CN([C@@H](C)CO)C(=O)c2cc(NS(C)(=O)=O)ccc2O[C@@H]1CN(C)C(=O)Nc1ccc(F)cc1`, with inactive: 1.02.

As to `C[C@@H]1CN([C@H](C)CO)C(=O)c2cc(NC(=O)Nc3ccc(C(F)(F)F)cc3)ccc2O[C@@H](C)CCCCO[C@H]1CN(C)S(=O)(=O)c1ccc(F)cc1`, the relative growth is inactive: 1.05. As to `C[C@H](CO)N1C[C@H](C)[C@@H](CN(C)Cc2ccccc2)OCCCC[C@H](C)Oc2ccc(NC(=O)Nc3ccccc3)cc2C1=O`, the relative growth was inactive: 0.99. Consider `O=C(CN1CCOCC1)N[C@H]1CC[C@H](CCn2cc(C3CC3)nn2)O[C@@H]1CO`, for which the relative growth was inactive: 1.02. In the case of `CN(C)CCCNC(=O)C[C@H]1CC[C@@H]2[C@H](COc3ccc(NC(=O)NC4CCCC4)cc3C(=O)N2C)O1`, the relative growth was inactive: 1.02. Then `C[C@H]1CCCCO[C@@H](CN(C)C(=O)Nc2ccc3c(c2)OCO3)[C@@H](C)CN([C@@H](C)CO)C(=O)c2cc(NC(=O)CCC(F)(F)F)ccc2O1`, with inactive: 0.978; and `Cc1ccc(NC(=O)CC(C)C)cc1`, with inactive: 1.02; and `C[C@H]1CN([C@@H](C)CO)C(=O)CCCn2cc(nn2)CO[C@H]1CN(C)S(=O)(=O)c1ccccc1C#N`, with inactive: 0.997.

As to `C[C@@H]1CN([C@H](C)CO)C(=O)c2cc(NC(=O)Nc3ccc(C(F)(F)F)cc3)ccc2O[C@@H](C)CCCCO[C@H]1CN(C)C(=O)NC1CCCCC1`, the relative growth was inactive: 1.04.

As for `C[C@H](CO)N1C[C@H](C)[C@H](CN(C)C(=O)Nc2ccc(F)cc2)Oc2ccc(NS(=O)(=O)c3cn(C)cn3)cc2C1=O`, the relative growth is inactive: 0.969. The figure for `CCOC(=O)C[C@@H](N)c1ccccc1Cl` is inactive: 1.02. For `C[C@@H]1CN([C@H](C)CO)C(=O)c2cccc(NC(=O)Nc3ccc(C(F)(F)F)cc3)c2O[C@@H]1CN(C)C(=O)Nc1ccc(F)cc1`, the relative growth was inactive: 0.991. With `CC1CC2C(C(O)CC3(C)C2CCC3(O)C(=O)COC(=O)CCC(=O)[O-])C2(C)C=CC(=O)C=C12.[Na+]` (stereo not given), the relative growth was inactive: 1.05. As to `C[C@H](CO)N1C[C@H](C)[C@@H](CN(C)Cc2ccc(C(F)(F)F)cc2)Oc2ccc(NC(=O)NC3CCCCC3)cc2C1=O`, the relative growth was inactive: 1.02. As for `CCOC(=O)[C@H]1CCCN([C@H]2CS(=O)(=O)C[C@@H]2S(=O)(=O)c2ccccc2)C1`, the relative growth was inactive: 1.02. `Cc1noc(C)c1NC(=O)N(C)C[C@H]1OCCCC[C@H](C)Oc2ccc(NC(=O)NC3CCCCC3)cc2C(=O)N([C@H](C)CO)C[C@@H]1C`: the relative growth is inactive: 0.998. Then `C[C@@H]1CN([C@@H](C)CO)C(=O)c2cc(NC(=O)Cc3cn(C)c4ccccc34)ccc2O[C@H]1CN(C)Cc1ccc(C(F)(F)F)cc1`, with inactive: 1.03. Then `O=c1c(O[C@@H]2O[C@H](CO)[C@@H](O)[C@H](O)[C@H]2O)c(-c2ccc(O)cc2)oc2cc(O)cc(O)c12`, with inactive: 0.96. The figure for `Cc1noc(C)c1S(=O)(=O)N(C)C[C@@H]1OCCCC[C@@H](C)Oc2ccc(NC(=O)Nc3ccc(F)cc3)cc2C(=O)N([C@H](C)CO)C[C@H]1C` is inactive: 1.01.

Regarding `C[C@@H]1CN([C@@H](C)CO)S(=O)(=O)c2ccc(C#CCN(C)C)cc2O[C@@H]1CN(C)C(=O)CN(C)C`, the relative growth is inactive: 1.02. Then `C[C@@H]1CN([C@H](C)CO)C(=O)Cc2cc(NC(=O)Cc3ccccc3)ccc2O[C@@H]1CN(C)Cc1ccc(Cl)c(Cl)c1`, with inactive: 1.03; and `CCCNC(=O)N1C[C@@H](O)COC[C@@H]2O[C@H](CC(=O)N3CCOCC3)CC[C@H]21`, with inactive: 1; and `O=C(C[C@H]1C[C@H]2c3cc(NC(=O)Cc4ccncc4)ccc3O[C@H]2[C@H](CO)O1)NCc1ccc2c(c1)OCO2`, with inactive: 1.01.

`O=C1NCC(=O)N2[C@@H]1C[C@@H](C(=O)O)[C@H]2c1ccc(O)cc1`: the relative growth is inactive: 0.983. As for `C[C@@H]1CCCCO[C@H](CN(C)Cc2ccc(C(F)(F)F)cc2)[C@H](C)CN([C@@H](C)CO)C(=O)c2cc(NC(=O)CCCN(C)C)ccc2O1`, the relative growth is inactive: 1.02.

`CNC[C@H]1Oc2cc(C#CC(C)(C)O)ccc2S(=O)(=O)N([C@H](C)CO)C[C@H]1C`: the relative growth is inactive: 1.01.

In the case of `CN1CCN(C(=O)C[C@@H]2C=C[C@@H](NC(=O)Cc3ccccn3)[C@@H](CO)O2)CC1`, the relative growth was inactive: 1.03. The figure for `CCC(=O)Nc1ccc2c(c1)OC[C@@H](C)N(C(=O)CN1CCOCC1)C[C@H](C)[C@@H](OC)CN(C)C2=O` is inactive: 1.01; for `COc1ccc(S(=O)(=O)N(C)C[C@@H]2Oc3ccc(NC(=O)NC(C)C)cc3C(=O)N([C@H](C)CO)C[C@H]2C)cc1` it is inactive: 0.983; for `C[C@@H]1CCCCO[C@H](CN(C)C(=O)Nc2ccc(F)cc2)[C@H](C)CN([C@@H](C)CO)C(=O)c2cc(NC(=O)CCC(F)(F)F)ccc2O1` it is inactive: 0.978.

Take `C[C@@H]1CCCCO[C@@H](CN(C)Cc2ccc(Cl)c(Cl)c2)[C@H](C)CN([C@@H](C)CO)C(=O)c2cc(NS(C)(=O)=O)ccc2O1`: the relative growth is inactive: 1.05.

For `C[C@@H]1CN([C@H](C)CO)S(=O)(=O)c2ccc(-c3cccc(C(=O)N(C)C)c3)cc2O[C@@H]1CN(C)C(=O)Cc1ccccn1`, the relative growth was inactive: 0.994. Consider `C=CCC[C@H](Cc1ccc(F)cc1)C(=O)OC[C@H](Cc1c[nH]c2ccccc12)NC(=O)[C@@H](CC=C)CC(=O)N[C@H](CO)Cc1ccccc1`, for which the relative growth is inactive: 0.997. The figure for `CC#CC(=O)NS(=O)(=O)c1ccccc1` is inactive: 0.981; for `CO[C@H]1CCN(C(=O)CN(C)C)[C@@H]2CCO[C@@H]12` it is inactive: 0.982. Then `C[C@H]1CCCCO[C@H](CN(C)C(=O)NC2CCCCC2)[C@@H](C)CN([C@@H](C)CO)C(=O)c2cc(NS(=O)(=O)c3ccccc3)ccc2O1`, with inactive: 1.02. Then `Cc1ccc(S[C@]2(C(=O)NCC(C)C)CC(=O)N(C3Cc4ccccc4C3)[C@@H]2c2ccc(CO)cc2I)cc1`, with inactive: 1.01; and `CN(C)CC(=O)N[C@@H]1CC[C@@H](CCNC(=O)C2CCC2)O[C@@H]1CO`, with inactive: 1.03. With `C[C@@H]1CN([C@@H](C)CO)C(=O)Cc2cc(NC(=O)Nc3ccc4c(c3)OCO4)ccc2O[C@@H]1CN(C)Cc1ccc(Oc2ccccc2)cc1`, the relative growth was inactive: 1.02. The figure for `C[C@@H]1CN([C@H](C)CO)C(=O)c2cccc(NC(=O)Nc3ccccc3)c2O[C@H]1CN(C)S(=O)(=O)c1cn(C)cn1` is inactive: 1.05; for `Nc1nc2ncc(=O)[nH]c2c(=O)[nH]1` it is inactive: 0.858; for `Cc1noc(C)c1S(=O)(=O)Nc1ccc2c(c1)C(=O)N([C@H](C)CO)C[C@H](C)[C@@H](CN(C)S(=O)(=O)c1ccc(Cl)cc1)O2` it is inactive: 0.938. For `CC(C)(O)C#Cc1ccc([C@@H]2[C@@H](CO)N3CCCCN(S(C)(=O)=O)C[C@@H]23)cc1`, the relative growth is inactive: 1.01. Then `C[C@@H]1CN([C@H](C)CO)C(=O)c2cc(NC(=O)Nc3cccc4ccccc34)ccc2O[C@@H](C)CCCCO[C@@H]1CN(C)C(=O)C1CCCCC1`, with inactive: 1.02.
